Assay results from the supplement of paper PMC10126150.
Values marked as one replicate rest on one cluster of the flow cell; about a third of the high ones do not repeat.

System: ATP
Test: switch fluorescence ratio, 500 uM ATP over buffer (Cy3 cluster intensity, sum of 5 cycles each) (fold (ratio)); higher = stronger signal-on switching upon ATP binding; sequences stand for … in TCGTCGGCAGCGTCAGATGTGTATAAGAGACAGTTTTTTTTTTTTTTTTTTTTTTTTT…TC
Conditions: aptamer strand: ATP DNA aptamer (quencher-CACCTGGGGGAGTATTGCGGAGGAAGG + anchor), 100 nM annealed; ATP concentration: 500 uM; one replicate
Procedure, shortened: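 Between each of five buffer/ATP cycles, the flow-cell was stripped with NaOH and re-annealed. Each cycle imaged Cy3-labelled switching-strand clusters, annealed to 100 nM quencher-labelled ATP aptamer on a modified Illumina MiSeq flow-cell, first in selection buffer and then after 15 min with 500 uM ATP at 22 °C. The fluorescence ratio is summed target-cycle over summed buffer-cycle Cy3 intensity per cluster, averaged per switch-domain sequence, with clusters outside 100-1000 RFU excluded.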
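Further: ATP exposure 15 min at 22 °C before imaging.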

| Sequence | switch fluorescence ratio |
| --- | --- |
| TTGAGTAAAC | 1.05 |
| TTGAGTAGTA | 0.973 |
| TTGAGTCCGG | 1.02 |
| TTGAGTTTA | 0.99 |
| TTGATAGTCT | 0.873 |
| TTGATCCCGG | 1.01 |
| TTGATCCGTC | 1.04 |
| TTGATCTGGA | 0.957 |
| TTGATGACAT | 1.04 |
| TTGATGGGAA | 1.01 |
| TTGATGTGTC | 1.04 |
| TTGATTCAAC | 1.02 |
| TTGATTGCC | 0.989 |
| TTGATTTGAG | 1.01 |
| TTGCACCGAT | 1.06 |
| TTGCACGACG | 1.03 |
| TTGCACGAGC | 1.03 |
| TTGCACGTGA | 1.09 |
| TTGCATAAAG | 0.99 |
| TTGCATGGAG | 1.01 |
| TTGCCAAACA | 0.985 |
| TTGCCACATT | 0.982 |
| TTGCCCAGGG | 1.24 |
| TTGCCCATGA | 0.958 |
| TTGCCCCCCG | 0.996 |

| Sequence | switch fluorescence ratio |
| --- | --- |
| TTGCCCCGT | 0.968 |
| TTGCGA | 1.01 |
| TTGCGACTAT | 1.01 |
| TTGCGAGGAA | 0.998 |
| TTGCGCAAC | 1.01 |
| TTGCGCGGGT | 1.02 |
| TTGCGCGTCT | 1 |
| TTGCGGAGTG | 1.02 |
| TTGCTACAGA | 1.04 |
| TTGCTAGTGA | 0.996 |
| TTGCTCAATC | 1.04 |
| TTGCTCTGCG | 1.1 |
| TTGCTGACGG | 1.03 |
| TTGCTGACGT | 1.02 |
| TTGCTGGAGG | 0.979 |
| TTGCTGGATC | 1.03 |
| TTGCTGTGTT | 1.03 |
| TTGCTTCA | 0.959 |
| TTGCTTCTTA | 1.02 |
| TTGCTTTATG | 1.03 |
| TTGGAAGATG | 0.961 |
| TTGGACTCTA | 1.06 |
| TTGGAGAATT | 0.986 |
| TTGGAGGA | 1.05 |
| TTGGAGTAAC | 1.02 |

| Sequence | switch fluorescence ratio |
| --- | --- |
| TTGGAGTTGA | 1.02 |
| TTGGATAAAT | 0.955 |
| TTGGATAGTC | 0.959 |
| TTGGATGATT | 1.05 |
| TTGGATGCAT | 0.999 |
| TTGGATGCTA | 0.979 |
| TTGGATGCTT | 0.99 |
| TTGGATGTAG | 1.01 |
| TTGGCACATT | 0.931 |
| TTGGCAGAGG | 0.982 |
| TTGGCAGATC | 1.07 |
| TTGGCCTCGT | 0.987 |
| TTGGCGGCA | 1.03 |
| TTGGCTGCTC | 0.965 |
| TTGGGACGGC | 0.987 |
| TTGGGAGACC | 0.997 |
| TTGGGAGATC | 0.981 |
| TTGGGATGC | 1.03 |
| TTGGGCACCG | 1.01 |
| TTGGGCCCAG | 0.99 |
| TTGGGGCCTA | 0.973 |
| TTGGGTCAAA | 1 |
| TTGGGTCCTG | 1.01 |
| TTGGGTTATA | 0.976 |
| TTGGTAAGTG | 0.954 |

| Sequence | switch fluorescence ratio |
| --- | --- |
| TTGGTCAGTT | 0.989 |
| TTGGTCCAAC | 0.978 |
| TTGGTCGACG | 0.987 |
| TTGGTGCGCG | 0.993 |
| TTGGTGCTCC | 1.03 |
| TTGGTGGCTG | 0.968 |
| TTGGTTCCAC | 1.06 |
| TTGGTTGCCG | 1.04 |
| TTGTAAAAAA | 1.04 |
| TTGTAACCGA | 1.2 |
| TTGTAATTCA | 1.01 |
| TTGTACCACG | 1.02 |
| TTGTACCTG | 1 |
| TTGTACTGGA | 0.951 |
| TTGTACTTCT | 1.01 |
| TTGTAGGGCA | 1.05 |
| TTGTAGGGCT | 0.966 |
| TTGTATTGCA | 0.997 |
| TTGTCAGG | 0.992 |
| TTGTCAGTCG | 0.978 |
| TTGTCATAAT | 0.982 |
| TTGTCCTATT | 1.01 |
| TTGTCGAAGT | 0.988 |
| TTGTCGGGTA | 1 |
| TTGTCGTTGT | 1.01 |
